Values joined by “and” are separate entries in the source; they are usually repeats but may differ in a detail not shown here. Equal values may be shown once.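 Five compound concentrations were applied to cells in 96-well plates for 48 hours; endpoints were derived by simple linear interpolation of the resulting dose-response curve. Here, GI50 denotes the concentration required for 50% inhibition of growth. The concentration for full growth arrest is given as TGI.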
What follows are molecules tested on NCI-H322M lung (assay: NCI anticancer screen, dose series, 48 h).

Row | Structure (SMILES) | TGI | GI50 [µM]
1 | O=c1c2c(sc3ccccc13)NCN(CCc1ccccc1)C2 | > 100 µM | 
2 | CC(=O)Nc1ccc2c3c(cc(O)c2c1)N(C(=O)CCCC(=O)Nc1ccc2c4c(cc(O)c2c1)N(C(=O)OC(C)(C)C)CC4CCl)CC3CCl (stereo not given) | 24.9 µM | 
3 | Fc1ccc(-c2ncn(C3CCNCC3)c2-c2ccnc(Oc3ccccc3)n2)cc1 | > 25 µM | > 25
4 | NC(=O)Cc1ncn(-c2ccccc2)n1 | > 100 µM | 
5 | COc1cc(C2c3cc4c(cc3[C@H](NC(=O)c3cccs3)C3COC(=O)[C@H]23)OCO4)cc(OC)c1OC (stereo not given in full) | > 100 µM | 
6 | CC1=Nc2nc3ccccc3n2C(C)(C)C1 | > 100 µM | 
7 | CC(=O)O[C@H]1C(=O)[C@@]2(C)[C@H]([C@H](OC(=O)c3ccccc3)[C@]3(O)C[C@H](OC(=O)[C@H](O)[C@@H](NC(=O)c4ccccc4)C4CCCCC4)C(C)=C1C3(C)C)[C@]1(OC(C)=O)CO[C@@H]1C[C@@H]2O | > 100 µM | 
8 | c1ccc2c(c1)ccc1ncccc12 | > 100 µM | 
9 | COc1ccc(-c2cn(-c3ccc(Cl)cc3)c(=S)[nH]2)cc1OC | > 100 µM | 51.5
10 | O=C(c1ccccn1)c1nnn2ccccc12 | > 100 µM | 
11 | Cc1cc(=O)oc2c(CNC(C)C(=O)O)c(O)ccc12 (stereo not given) | > 100 µM | 
12 | NC(=O)NC(CC(=O)O)C(=O)O (stereo not given) | > 100 µM | 
13 | CCOC(=O)C1=C(N)Oc2c(sc3c(C)cccc23)C1c1ccc(Cl)cc1 (stereo not given) | 21.7 µM | 6.96
14 | C=CC1(c2ccc3ccccc3c2)OCC(CC)(CC)CO1 | 68.6 µM | 
15 | CC(=O)Nc1ccc(C2=N/C(=C\c3ccc(Cl)c(Cl)c3)C(=O)O2)cc1 | > 100 µM | 
16 | CC1(C)CC(=O)C(C(c2cccc(O)c2O)C2C(=O)CC(C)(C)CC2=O)C(=O)C1 | > 100 µM | 
17 | Cn1c(=O)cc(NNc2ccc(Br)cc2)[nH]c1=O | 9.75 µM | 
18 | Cc1cccc2nc3n(c12)C(=O)c1ccccc1-3 | > 100 µM | 
19 | CCc1ccc(CCC(=O)O)nc1 | > 100 µM | 
20 | O=C(c1ccccc1)c1ccc(Cl)c([N+](=O)[O-])c1 | 26.1 µM | 13
21 | CCc1ccc(CCC(=O)Nc2ncc(Cc3cc(Cl)ccc3Cl)s2)o1 | > 50 µM | 2.58
22 | O=C(O)CN1CCNCCN(CC(=O)O)CCNCC1 | > 100 µM | 
23 | O=C(CC1(O)C(=O)Nc2c(Cl)cccc21)c1ccccc1 (stereo not given) | > 100 µM | 
24 | Oc1ccc2ccccc2c1-c1c(Nc2ccccc2)ccc2ccccc12 | 28.6 µM | 
25 | Cc1nc2c(O)cccc2c(=O)[nH]1 | > 1000 µM | 
26 | Cc1cc2c(cc1C)N1Cc3c(ccc(C)c3C)N(C2)C1 (tested in a mixture with another compound) | > 100 µM | 

Row | Structure (SMILES) | TGI | GI50 [µM]
27 | CC1CC(=O)N2CCCNC2=C1C#N (stereo not given) | > 100 µM | 
28 | O/N=C(\C=N\O)c1ccc2c(c1)Sc1ccccc1O2 | 94.8 µM | 
29 | Cc1ccc(S(=O)(=O)c2c(N)c3nccn3c3nc4ccccc4nc23)cc1 | > 100 µM | 
30 | COc1ccc(-c2nc(N(C)C)c3ccccc3n2)cc1 | 25.2 µM | 
31 | CCOC(=O)C1(Cc2ccccc2)Cc2cc3c(cc2C1=O)CCC3 (stereo not given) | > 100 µM | 
32 | NC(=O)c1nnn(Cc2cc(Cl)c(C(=O)c3ccc(Cl)cc3)c(Cl)c2)c1N | > 9.09 µM and 39 µM | > 9.09
33 | COC(=O)c1cc(C)n2c1CS[C@@H]2c1ccccc1 | > 100 µM | 
34 | CCCCCCc1cc2cc(C(=O)Nc3ccccc3F)c(=N)oc2cc1O | 42.5 µM | 
35 | O=c1oc2c3ccc4ccccc4c3n(CCN3CCOCC3)c2c2ccccc12 | > 100 µM | 
36 | CC(C)(C)C(=O)OCOP(=O)(OCOC(=O)C(C)(C)C)C1CCCN(OC(=O)c2ccccc2)C1=O (stereo not given) | 6.77 µM | 1.48
37 | Cc1ccc(-c2c(C#N)c(-c3ccc([N+](=O)[O-])cc3)c(C#N)c(=O)n2NS(=O)(=O)c2ccc(C)cc2)cc1 | > 100 µM | 
38 | Cn1c(=O)oc2cc(C(=S)N3CCC(Cc4ccccc4)CC3)ccc21 | > 100 µM | 
39 | COc1ccc(C(=O)/C(=N/Nc2ccccc2)c2ccc(OC)cc2)cc1 | > 100 µM | 
40 | COc1cc(COC(=O)N2CCCCC2C(=O)O)c([N+](=O)[O-])cc1OC (stereo not given) | > 100 µM | 
41 | Cn1cc(C2=C(c3c4n(c5ccccc35)CC(CN)C4)C(=O)NC2=O)c2ccccc21 (stereo not given) | 13.3 µM | 3.78
42 | O=c1n(CCCN2CCN(c3cccc(Cl)c3)CC2)nc2n1-c1ccc3ccccc3c1SC2 | > 100 µM | 
43 | O=C1NC2OCC(O)C(O1)C2O (stereo not given) | > 100 µM | 
44 | CCOC(=O)c1ccc2c(c1)[n+](=O)c(C(=O)c1ccc3ccccc3c1)c(C(F)(F)F)n2[O-] | 2.99 µM | 1.63
45 | COC1OCC(OS(=O)(=O)c2ccc(C)cc2)C(OC(=O)c2ccccc2)C1OC(=O)c1ccccc1 (stereo not given) | > 100 µM | > 100
46 | O=C(O)CNC(=O)c1ccccc1O | > 100 µM | 
47 | CCCCCCCCCCCCOC1C(CNC(=O)C2OC3OC(C)(C)OC3C2NC(=O)CN2CCN(c3ccccn3)CC2)OC2OC(C)(C)OC21 (stereo not given) | 5.78 µM | 2.43
48 | Cc1cc2cc(Cl)ccc2nc1C(=O)c1ccccc1 | > 100 µM | 
49 | O=C(Nc1ccc(Cl)c(Cl)c1)C(=O)C(C1OC(=O)c2ccccc21)[N+](=O)[O-] (stereo not given) | > 100 µM | 
50 | CCCCC(NC(=O)CC)C(=O)O (stereo not given) | > 100 µM | 
51 | COc1nc(/C=N/NC(N)=S)nc(OC)n1 | > 100 µM | 
52 | CC(=O)OCc1cccc(O)c1C(=O)CCC=C(C)C | > 100 µM | 

Row | Structure (SMILES) | TGI | GI50 [µM]
53 | CC(C)=CCC[C@](C)(O)[C@H]1CC[C@]2(C)[C@@H]1[C@H](O)C[C@@H]1[C@@]3(C)CC[C@H](O[C@@H]4O[C@H](CO)[C@@H](O)[C@H](O)[C@H]4O)C(C)(C)[C@@H]3CC[C@]12C | 35.2 µM | 
54 | Nc1ccccc1/C=N\Nc1ccccc1 | > 100 µM | > 100
55 | COC(=O)C1=C(C(=O)OC)SC(=C2c3ccsc3-c3sccc32)S1 | > 100 µM | 
56 | CC1(C)N(OC2CCCCO2)C(c2ccccc2)C(c2ccccc2)=[N+]1[O-] (stereo not given) | > 100 µM | 
57 | C=C1C(=O)O[C@H]2[C@H]1CC/C(COC(=O)/C=C\C(=O)NCc1ccc(Cn3c(=O)sn(-c4ccc(OC)cc4)c3=O)cc1)=C\CC[C@@]1(C)O[C@@H]21 | 7 µM | 2.29
58 | CCOc1cc(C=O)c2c(ccc3ccc(OC)c(OC)c32)c1OC | > 100 µM | 
59 | CCOC(=O)N1CC2(C(=O)OC)C=CC1C(C(=O)OC)C2 (stereo not given) | > 100 µM | 
60 | O=C1Nc2ccccc2C1(c1ccc(O)c(F)c1)c1ccc(O)c(F)c1 | 1.09 µM | 0.286
61 | Cc1cc(C)nc(NS(=O)(=O)c2ccc(NC(=O)c3cccc4c(Nc5ccc(S(=O)(=O)Nc6nc(C)cc(C)n6)cc5)c5ccccc5nc34)cc2)n1 | 42.3 µM | 
62 | CN(C)CCCc1cccnc1 | > 100 µM | 
63 | CC(C)c1ccc2c(N=Nc3ccc(S(N)(=O)=O)cc3)c(O)[nH]c2c1 | > 25 µM | > 22.5
64 | O=C(CC(=O)N(C(=O)c1ccccc1)c1ccc(Cl)cc1)N/N=C\c1ccccc1O | > 100 µM | 
65 | OCCOCCN1CCN(c2nc(N3CCCC3)c3nc(Cl)c(NCc4ccccc4)nc3n2)CC1 | 29.7 µM | 
66 | C=C1C(=O)OC2C[C@H](C)C3CC(=O)C(C)=C3CC12 (stereo not given in full) | > 58.5 µM | 
67 | CN(CCCCCl)P(=O)(OCc1ccc([N+](=O)[O-])o1)C(F)(F)c1ccc(CC(=O)N[C@@H](CC(=O)O)C(=O)N[C@@H](Cc2ccc(C(F)(F)P(=O)(OCc3ccc([N+](=O)[O-])o3)N(C)CCCCCl)cc2)C(N)=O)cc1 (stereo not given in full) | > 100 µM | 47.6
68 | O=C(CCCCCCC(=O)N/N=C/c1ccc(N(c2ccccc2)c2ccccc2)cc1)NO | 12.4 µM | 3
69 | Cn1c(=O)nc2n(CCO)ccnc-2c1=O | > 100 µM | 
70 | COc1ccc(Nc2c3c4c(cccc4[nH]c2=O)C(=O)c2ccccc2-3)cc1 | > 100 µM | 0.0464
71 | COC(=O)NNc1c([N+](=O)[O-])cnn(-c2ccccc2)c1=O | 10.4 µM | 
72 | Cc1ccc(C2(C)NC(=S)N(NC(N)=S)C2=S)cc1 (stereo not given) | > 100 µM | 
73 | O=C(Cn1c(C(=O)/C=C/c2ccco2)nc2ccccc21)c1ccc(Cl)cc1 | > 100 µM | 
74 | CC(C)=CCC/C(C)=C/CC/C(C)=C/CC/C=C(\C)CC/C=C(\C)CCC1SC1(C)C (stereo not given) | > 100 µM | 
75 | COCC1C(=O)c2cc3c(cc2C12C=CC1(C=C2)OCCO1)OCO3 (stereo not given) | 28.2 µM | 
76 | C/C(O)=C(/C=N\C(=S)Nc1ccc(Cl)c(Cl)c1)C(=O)Nc1ccccc1C | > 100 µM | 
77 | OC(c1ccsc1)c1cc2ccccc2s1 (stereo not given) | > 10 µM | 
78 | SC[C@@H]1COC[C@H](CS)S1 | > 100 µM | 

Row | Structure (SMILES) | TGI | GI50 [µM]
79 | O=C1ON(Cc2ccccc2)C(c2ccccc2)N1c1ccccc1 (stereo not given) | > 100 µM | 
80 | CN(C)c1ccc(/C=C(\C#N)c2cc3ccccc3n2C)cc1 | > 100 µM | 0.778
81 | C/C(=N\Nc1nc2ccccc2[nH]1)c1ccncn1 | > 100 µM | 
82 | CCCCCCNC(=O)c1cc(C#Cc2cc(OC)ccc2OC)ccc1OC | > 100 µM | 
83 | Cc1[nH]c2ncn3ncnc3c2c1Cc1ccccc1 | > 100 µM | 
84 | O=C(CCCCC(=O)N/N=C\c1ccccc1Cl)N/N=C\c1ccccc1Cl | > 100 µM | 28.8
85 | O=C1CSC(=S)N1c1ccc(F)cc1F | > 100 µM | 
86 | CC(C)(C)[Si](C)(C)OCC1OC(n2cc(F)c(=O)[nH]c2=O)CC1O[Si](C)(C)C(C)(C)C (stereo not given) | 25 µM | 
87 | O=S(=O)(O)c1ccc(Cl)cc1.[Cd] | > 100 µM | > 100
88 | CN(C)C1(C(=O)O)CC1 | > 100 µM | 
89 | O=C1C(c2ccc([N+](=O)[O-])cc2)=[N+]([O-])c2ccccc21 | > 100 µM | 
90 | O=C(CSc1nc2ccc([N+](=O)[O-])cc2[nH]1)Nc1cccc(Cl)c1 | 15.2 µM | 3.2
91 | O=c1cc2n(c(=O)[nH]1)C1OC(C(O)C1O)[C@H]2CCO (stereo not given in full) | > 100 µM | 
92 | O=C(CCc1nnc2s/c(=C\c3ccc4c(c3)OCO4)c(=O)n12)Nc1cc(Cl)ccc1Cl | > 100 µM | 
93 | COC(=O)CCC(=O)CC(=O)C(=O)Nc1ccc(F)cc1 | > 100 µM | 
94 | COc1ccc(C(=O)C(c2ccc(OC)cc2)C2C(=O)Oc3ccccc32)cc1 (stereo not given) | > 100 µM | > 100
95 | COc1ccc(C(=O)/C=C2\c3ccccc3C(=O)N2C)cc1 | > 100 µM | 
96 | O=C(O)CN(CC(=O)O)Cc1cc2c(cc1O)Oc1cc(O)c(CN(CC(=O)O)CC(=O)O)cc1C21OC(=O)c2ccccc21 | > 100 µM | 
97 | COc1ccc(/C=C2\N=C(c3ccccc3)N(c3cc(C(F)(F)F)ccc3Cl)C2=O)cc1OC | > 100 µM | > 100
98 | COC(=O)[C@@]12CC[C@]1(C(=O)OC)C1C(C)=CC(=O)O[C@@]12C (stereo not given in full) | > 100 µM | 
99 | c1ccc(-c2nc3sccn3n2)cc1 | > 100 µM | 
100 | COc1ccc(/C=C/C(=O)c2nc3ccccc3[nH]2)cc1 | > 77.2 µM | 
101 | Nc1ccc2cc(S(=O)(=O)O)cc(O)c2c1N=Nc1ccc(NC(=O)Nc2ccc(N=Nc3c(N)ccc4cc(S(=O)(=O)O)cc(O)c34)c(S(=O)(=O)O)c2)cc1S(=O)(=O)O | > 100 µM | 
